Assay results published in publication PMC4336329 (PLoS ONE, 2015).
Among all 310,000 compounds or so, about 2,200 (0.71%) showed an effect of 50% or more. Effects have a minus sign here. This is one part of the list.

Target: human ether-à-go-go-related gene (hERG) potassium channel (human, UniProt Q12809)
Test: primary screen, population patch clamp on CHO cells stably expressing hERG

Chain of human ether-à-go-go-related gene (hERG) potassium channel (Q12809 whole entry, looked up): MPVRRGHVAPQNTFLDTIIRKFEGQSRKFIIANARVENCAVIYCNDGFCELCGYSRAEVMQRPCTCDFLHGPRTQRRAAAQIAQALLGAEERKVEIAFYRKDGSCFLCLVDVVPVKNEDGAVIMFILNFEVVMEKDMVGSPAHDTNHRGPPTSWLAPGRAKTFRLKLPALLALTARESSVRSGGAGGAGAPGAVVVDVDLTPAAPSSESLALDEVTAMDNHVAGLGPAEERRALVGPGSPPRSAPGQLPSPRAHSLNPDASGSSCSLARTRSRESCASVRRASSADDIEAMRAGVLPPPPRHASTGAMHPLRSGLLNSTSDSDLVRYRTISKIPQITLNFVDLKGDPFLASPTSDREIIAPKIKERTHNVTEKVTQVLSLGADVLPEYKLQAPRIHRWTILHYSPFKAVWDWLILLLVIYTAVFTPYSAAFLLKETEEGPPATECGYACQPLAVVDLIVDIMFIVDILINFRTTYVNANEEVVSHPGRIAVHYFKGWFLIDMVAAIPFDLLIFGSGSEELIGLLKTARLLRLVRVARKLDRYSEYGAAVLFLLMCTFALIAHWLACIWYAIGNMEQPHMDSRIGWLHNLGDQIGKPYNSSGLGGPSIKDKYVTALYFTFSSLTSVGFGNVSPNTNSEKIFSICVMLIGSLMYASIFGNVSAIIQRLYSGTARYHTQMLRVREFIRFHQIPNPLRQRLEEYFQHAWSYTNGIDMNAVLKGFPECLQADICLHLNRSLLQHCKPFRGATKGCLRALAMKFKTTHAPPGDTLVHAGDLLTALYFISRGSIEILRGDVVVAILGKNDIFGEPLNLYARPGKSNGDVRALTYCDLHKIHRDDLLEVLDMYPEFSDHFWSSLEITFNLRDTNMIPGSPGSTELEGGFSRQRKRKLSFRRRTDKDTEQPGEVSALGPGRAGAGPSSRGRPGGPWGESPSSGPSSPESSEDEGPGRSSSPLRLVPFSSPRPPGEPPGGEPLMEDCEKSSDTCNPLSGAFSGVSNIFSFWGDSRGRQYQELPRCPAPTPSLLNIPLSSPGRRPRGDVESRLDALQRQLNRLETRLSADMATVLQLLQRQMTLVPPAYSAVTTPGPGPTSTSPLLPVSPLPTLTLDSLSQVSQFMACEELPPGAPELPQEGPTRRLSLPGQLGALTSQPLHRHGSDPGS

SMILES	hERG current change (%, negative = inhibition) at 1uM [%]
NC(=O)Cc1nc(-c2ccc([N+](=O)[O-])cc2)cs1	9
CCn1c(C)nc2cc(C(=O)NNS(=O)(=O)c3ccc(C)c(C)c3)ccc21	2.45
CCOC(=O)c1cnn(CCOC(=O)c2cccc(F)c2)c1NC(=O)c1cccc(F)c1	25.2
O=c1[nH]c2ccccc2c(O)c1-c1ccccc1[N+](=O)[O-]	19.1
O=C(CN1CCN(c2ccc(Cl)cc2)CC1)Nc1ccc(F)cc1	-28.1
CC1Cc2ccccc2N1CC(=O)Nc1cccc(S(N)(=O)=O)c1 (stereo not shown)	6.47
CC(C)NC(=O)c1cccc2c1-c1ccccc1C2=O	9.42
COC(=O)C1=C(C)NC(C)=C(C(=O)OC)C1C(=O)OC(C)C(=O)c1ccccc1 (stereo not shown)	4.45
CCN(CC)C(=O)CCn1nc(-c2ccc(C)cc2)c2ccccc2c1=O	-13.5
Cc1cc(S(=O)(=O)NCc2ccccn2)c(Cl)cc1Cl	10.4
NC(=O)C1CC(=O)N(c2ccc(OCc3ccc(Cl)cc3)cc2)C1 (stereo not shown)	-3.97
Fc1ccc(-c2nc3c(-c4ccc(Cl)cc4)cnn3cc2CCN2CCOCC2)cc1	3.56
CCN(CC(=O)Nc1ccc(NC(C)=O)cc1)C(=O)c1ccc2c(c1)OCCO2	7.34
Cc1cc(Cl)ccc1OC(C)C(=O)NCCCCc1ccccc1 (stereo not shown)	7.31
COc1ccc(NC(=O)C(NC(=O)Cc2cccs2)c2ccccc2)cc1 (stereo not shown)	16.6
COc1cc(OC)c(NC(C)C(=O)N2CCCC2)cc1Cl (stereo not shown)	14
COc1ccc(/C(C)=N/NC(=O)c2ccncc2)cc1[N+](=O)[O-]	5.96
Cc1cc(-n2c(C)cc(C(=O)CSc3nnc4sc5ccccc5n34)c2C)no1	2.34
CCOc1ccc(OCC(=O)OC(C)C(=O)Nc2ccc(Cl)cn2)cc1 (stereo not shown)	4.38
N/C(=N\OC(=O)c1cccs1)c1cccc([N+](=O)[O-])c1	16.6
CCn1c(=O)n(CC)c2cc(S(N)(=O)=O)ccc21	-1.8
CCOc1cc(-c2cc(-c3ccc(C)cc3)nc(N)c2C#N)ccc1O	-8.08
CCc1ccc(-n2nnnc2SCC(=O)NNC(=O)c2ccco2)cc1	8.49

SMILES	hERG current change (%, negative = inhibition) at 1uM [%]
c1ccc(OCCCCn2cnc3ccccc32)cc1	-15.1
CC(C)c1ccc(CNc2ncc(Br)cn2)cc1	11.6
CCOCCCNS(=O)(=O)c1cc(Br)cc2c1N(C(=O)C1CC1)CC2	7.14
CN(C)Cc1nc2ccccc2c(=O)n1Cc1nc(-c2cc3ccccc3o2)cs1	9.15
O=C(Cc1cccc(NC(=O)C2CCCN(C(=O)CCc3ccccc3)C2)c1)Nc1cccc(C(=O)N2CCCC2)c1 (stereo not shown)	-4.58
N#CCSc1ccc2nc(-c3ccccc3)cn2n1	11.2
CC1(C)C2CCC(C2)C1(C)NC(=O)C[N+](C)(C)C.[Cl-] (stereo not shown)	11.9
Cc1ccc(CNC(=O)COC(=O)c2cc3c(s2)CCC(C)C3)cc1 (stereo not shown)	14.3
O=C(NCC1COCCO1)c1cc(COc2c(F)cccc2F)on1 (stereo not shown)	17.9
Cc1ccc2oc(C(=O)N3CCN(c4cccc(C)n4)CC3)c(C)c2c1	15.6
CCOC(=O)CSc1nnc(CNC(=O)c2cccs2)n1-c1cc(OC)ccc1OC	-1.38
Brc1cccc(CNCCc2ccc3c(c2)OCO3)c1.O=C(O)C(=O)O	-0.131
Cc1ccc(NC(=O)CSc2nnc(NC(=O)CN3CCOCC3)s2)cc1	-1.91
Cc1ccccc1CCNC(=O)C1CCC(=O)N(Cc2ccc(Cl)cc2)C1 (stereo not shown)	-19.6
CC(c1ccccc1)C(CC(=O)O)C(=O)Nc1ccc(Cl)c(Cl)c1 (stereo not shown)	16.2
CCOC(=O)N1CCN(S(=O)(=O)c2ccc(F)c(C(=O)Nc3cccc(C)c3C)c2)CC1	11.2
CS(=O)(=O)c1ccc2nc(NC(=O)CN3CCC(Cc4ccccc4)CC3)sc2c1	12.9
CSc1ncccc1C(=O)OCC(=O)Nc1ccc(S(=O)(=O)N2CCCC2)cc1	13.5
CC(C)Oc1ccc(CNC(=O)c2cc(S(=O)(=O)N3CCOCC3)cn2C)cc1	14.8
O=C(COC(=O)C1(c2ccc(F)cc2)CCCC1)Nc1ncc(C(F)(F)F)cc1Cl	2.97
COc1cccc(N=CC2=C(O)CCCC2=O)c1	1.96
Cc1nc(N2CCC(C)CC2)c2c(C)c(C(=O)Nc3cccc(C(F)(F)F)c3)sc2n1	9.18
O=C(NCC1CCCO1)C(c1ccncc1)N(Cc1cccs1)C(=O)Cn1nnc(-c2ccc(F)cc2)n1 (stereo not shown)	-13.7

SMILES	hERG current change (%, negative = inhibition) at 1uM [%]
CCS(=O)(=O)N1CCC(NC(=O)C2CCCCC2)CC1	14.4
CCCCNC(=O)C1CCCNC1=O (stereo not shown)	17.5
Cc1cnnn1-c1ccc(C(=O)CCl)cc1	17.2
O=S(=O)(c1ccc(Br)cc1)N1CCCC1	5.13
CCOC(=O)c1ccc(NC(=S)N(CCN(C)C)Cc2cccs2)cc1	5.35
CN(C)c1cccc(NC(=O)c2cccc3ccccc23)c1	13
Cc1ccc(NC(=O)C2COc3ccccc3O2)cc1 (stereo not shown)	8.23
COc1ccc(NC(=O)c2cc3ccccc3cc2O)cc1	12.9
Cc1nnnn1/C(=C\c1ccccc1)C(=O)OCC(=O)N(C)C1CCS(=O)(=O)C1 (stereo not shown)	13.2
Clc1cccc(OCCn2cncn2)c1Cl	6.73
CCC1C(=O)Nc2nc(-c3ccccc3)c(-c3ccccc3)n2N=C1C (stereo not shown)	1
Nc1cc(N)nc(SCCOc2ccccc2F)n1	15.5
NC(=O)C(CCC(=O)c1ccc(Br)cc1)S(=O)(=O)c1ccccc1 (stereo not shown)	0.865
Cc1ccc(NC(=O)CSc2nc3c(c(=O)[nH]2)CCC3)cc1C	-3.15
COc1cccc(OC)c1C(=O)NC(=S)N1CCCCC1c1cccnc1 (stereo not shown)	11.9
CCOC(=O)N1CCC(Nc2c(NCCN3CCN(c4cccc(Cl)c4)CC3)c(=O)c2=O)CC1	2.73
CC(N=C1NC(C)(C)Cc2ccccc21)C(=O)O (stereo not shown)	5.34
CC(=O)c1ccc(Nc2ccc(-c3ccccc3C)nn2)cc1	6.01
Cc1ccc(C2CC(c3cccs3)=NN2C(=O)CSc2nc(=O)n3ccc(C)cc3n2)cc1 (stereo not shown)	-4.83
CS(=O)(=O)N(Cc1ccco1)Cc1ccccc1Cl	0.357
CCOC(=O)C1(CC/C(C)=N\NC(N)=O)CC(C)(C)OC1=O (stereo not shown)	15
CCCNC(=O)OCc1cccnc1Sc1ccc(C)cc1	1.55
COc1ccc(NC(=O)c2ccc(-n3nc(C)cc3C)cc2)cc1OC	8.22

SMILES	hERG current change (%, negative = inhibition) at 1uM [%]
O=C(O)CN1C(=O)/C(=C\c2cc(Br)ccc2OCc2ccccc2Cl)SC1=S	15.8
O=S1(=O)CCC(N2CCOCC2)C1 (stereo not shown)	4.59
COC(=O)Nc1nc(-c2ccccc2)c(C(=O)c2ccc(Cl)cc2)s1	0.489
COc1ccc(-c2csc(N3CCN(S(=O)(=O)c4ccc5c(c4)NC(=O)CO5)CC3)n2)cc1	18.5
COc1ccc(OCC(=O)N2CCN(C(=O)Cc3ccccc3)CC2)cc1	-11.2
CCOc1ccc(CCNC(=O)COC(=O)c2cc(OC)c(OC)c(OC)c2)cc1OCC	4.5
COc1cccc(CNC(=O)CN2C(=O)COc3ccc(S(=O)(=O)N4CCCCC4)cc32)c1	13.5
O=C(CSc1ccc(-c2ccco2)nn1)NC1CCCC1	11.8
COc1ccc(-c2oc3ccccc3c(=O)c2OCC(=O)O)cc1	15.1
O=C(C1CCCO1)N1CCN(C(=S)NC2CC2)CC1 (stereo not shown)	13.6
Cc1ccc(C(=O)Cn2nnc(-c3cccs3)n2)cc1	11.2
Cc1nnc(SCC(=O)N2CCCC2)n1-c1ccc(F)cc1	4.38
CC(=O)OCC(COC(C)=O)OC(C)=O	21
N#C/C(=N\O)c1nc2ccccc2s1	12.6
CCOC(=O)c1sc(NC(=O)Cc2ccc(C)cc2)nc1C	-13.6
CCCOc1ccc(CSC(CC(=O)O)C(=O)O)cc1 (stereo not shown)	1.58
CCOc1ccccc1/C=C/c1onc(C)c1S(=O)(=O)N1CCC(C(=O)NC(C)(C)C)CC1	14.6
CCN(CC)CCNCc1ccc(-c2ccc(Cl)cc2)o1.Cl	-45.2
Cc1cc(C=C2C(=O)NC(=S)NC2=O)c(C)n1C1CCCC1	9.53
CC(=O)c1sc2nc(CSc3nncn3C)[nH]c(=O)c2c1C	8.38
O=C(c1ccccn1)N1CCN(c2cccc(C(F)(F)F)c2)CC1	7.88
CCOC(=O)C1CCCN(C(=S)Nc2cccc(Cl)c2C)C1 (stereo not shown)	14.2
